Like-named read-outs stand apart in the source and are kept apart here.
Legend:
[1] = tested on: caspase-3 in HCT116 cells; assay: Caspase-3 activation assay, colorimetric, DEVD-pNA substrate; type: cell-based, human; settings: HCT116, 48 h; 5-FU at 4 μM
[2] = tested on: HCT116 cells; settings: HCT116 cells, 4 µM
[3] = tested on: HCT116 (human colon carcinoma); assay: cells; settings: HCT-116, 72 h, read-out: IC50 in µM, HCT116
[4] = tested on: HL-60 (human promyelocytic leukemia)
[5] = tested on: K-562 (human chronic myelogenous leukemia); assay: cells; settings: K562, 72 h, read-out: IC50 in µM, K562
[6] = tested on: HCT116 cells; assay: Annexin V-FITC/PI staining assay, flow cytometry; type: cell-based, human; settings: HCT116, annexin V-FITC/PI, 24 and 48 h; 5-FU at 4 μM
Method: For apoptosis detection, we used the FITC Annexin V Apoptosis Detection Kit I (BD Biosciences), and the analysis was performed according to the manufacturer’s instructions. The cell fluorescence was determined by flow cytometry as described above. The protection assays using the caspase-3 inhibitor (Z-DEVD-FMK, BD Biosciences) and the antioxidant NAC (Sigma-Aldrich Co.) were performed. In brief, the cells were pre-treated for 2 h with 50 µM Z-DEVD-FMK and for 1 h with 5 mM NAC, followed by incubation with 4 µM of the complex for 48 h. The cells were then trypsinized and the FITC Annexin V Apoptosis Detection assay was conducted as described above.

[7] = tested on: K-562 (human chronic myelogenous leukemia)
[8] = tested on: HL-60 (human promyelocytic leukemia); assay: cells; settings: HL-60, 72 h, read-out: IC50 in µM, HL-60
[9] = tested on: HSC-3 (human oral squamous cell carcinoma); assay: cells; settings: HSC-3, 72 h, read-out: IC50 in µM, HSC3
[10] = tested on: HSC-3 (human oral squamous cell carcinoma)
[11] = tested on: HepG2 (human hepatocellular carcinoma)
[12] = tested on: HCT116 cells; settings: HCT116, trypan blue, 4 μM
Method: TBE assay was used to confime the cytotoxic effect of the complex tested. The number of viable cells and non-viable cells (take up trypan blue) were counted. Briefly, 90 μL was removed from the cell suspension and 10 μL of trypan blue (0.4%) was added. Cell counting was performed using a light microscope with a hemocytometer filled with an aliquot of the homogenized cell suspension.

[13] = tested on: cancer multicellular spheroids formed from HCT116 cells; assay: 3D multicellular spheroids culture, alamar blue assay; type: cell-based, human; settings: Homo sapiens, HCT-116; 3D multicellular spheroids, alamar blue assay, 72 h
Method: Cell viability was quantified using the alamar blue assay, according to Ahmed et al.[28]. Cells were inserted in 96-well plates for all experiments (7 × 10^4 cells/mL for adherent cells or 3 × 10^5 cells/mL for suspended cells in 100 μL of medium). After 24 h, the complex was dissolved in dimethyl sulfoxide (DMSO, Sigma-Aldrich co.) and added to each well and incubated for 72 h. […] Four (for cell lines) or 24 h (for PBMCs) before the end of incubation, 20 μL of a stock solution (0.312 mg/mL) of the alamar blue (resazurin, Sigma-Aldrich Co.) were added to each well. Absorbance at 570 nm and 600 nm was measured using the SpectraMax 190 Microplate Reader (Molecular Devices, Sunnyvale, CA, EUA), and the drug effect was quantified as the percentage of control absorbance.
Briefly, 100 μL of a solution of cells (0.5 × 10^6 cells/mL) were inserted in 96-well plate with a cell-repellent surface (Greiner Bio-One; Kremsmünster, Austria) and cultured in complete medium plus 3% matrigel (BD Biosciences; San Jose, CA, EUA). Spheroids with stable structures had formed after three days. Then, the spheroids were exposed to a range of drug concentrations for 72 h, after which the cell viability was quantified by alamar blue assay as described above.

[14] = tested on: HCT116 cells; assay: Mitochondrial transmembrane potential, rhodamine 123, flow cytometry; type: cell-based, human; settings: HCT116, rhodamine 123, 24 h; 5-FU at 4 μM
[15] = tested on: MCF7 (human breast carcinoma); assay: cells; settings: MCF7, 72 h, read-out: IC50 in µM, MCF7
[16] = tested on: B16-F10 (mouse melanoma); assay: cells; settings: B16-F10, 72 h, read-out: IC50 in µM, B16-F10
[17] = tested on: B16-F10 (mouse melanoma)
[18] = tested on: MCF7 (human breast carcinoma)
[19] = tested on: HepG2 (human hepatocellular carcinoma); assay: cells; settings: HepG2, 72 h, read-out: IC50 in µM, HepG2
[20] = tested on: HCT116 (human colon carcinoma)
[21] = tested on: SCC-9 (human oral squamous cell carcinoma)
[22] = tested on: SCC-9 (human oral squamous cell carcinoma); assay: cells; settings: SCC-9, 72 h, read-out: IC50 in µM, SCC9

## O=c1[nH]cc(F)c(=O)[nH]1 [5-FU, 5-fluorouracil]
[1]
  Caspase-3 activation: not affected
[2]; 24 h incubation
  DNA content (%) G0/G1: 37.7 ± 1.8%
  DNA content (%) G2/M: 16.9 ± 1.1%
  DNA content (%) Sub-G0/G1: 11.5 ± 4.6%
[2]; 48 h incubation
  DNA content (%) G0/G1: 28.9 ± 3.9 %
  DNA content (%) G2/M: 17.3 ± 1.2%
  DNA content (%) S: 31.8 ± 1.5 %
  DNA content (%) Sub-G0/G1: 18.1 ± 3.0%
[3]
  IC50: 4.1 µM
[4]; SI = IC50[MRC-5]/IC50[HL-60]
  Selectivity index (SI): 4.6
[4]; SI = IC50[PBMC]/IC50[HL-60]
  Selectivity index (SI): 6.2
[5]
  IC50: 19.4 µM
[6]
  Early and late apoptotic cells: did not induce increasing in the early and late apoptosis
[7]; SI = IC50[MRC-5]/IC50[K-562]
  Selectivity index (SI): 3
[7]; SI = IC50[PBMC]/IC50[K-562]
  Selectivity index (SI): 4
[8]
  IC50: 12.6 µM
[9]
  IC50: 16.3 µM
[10]; SI = IC50[MRC-5]/IC50[HSC-3]
  Selectivity index (SI): 3.6
[10]; SI = IC50[PBMC]/IC50[HSC-3]
  Selectivity index (SI): 4.8
[11]; SI = IC50[MRC-5]/IC50[HepG2]
  Selectivity index (SI): 44.5
[11]; SI = IC50[PBMC]/IC50[HepG2]
  Selectivity index (SI): 60
[12]; 24 h
  Reduction of the number of viable cells: 56.6%
[12]; 48 h
  Reduction of the number of viable cells: 73.2%
[13]
  IC50: > 192 µM
[14]
  Mitochondrial membrane potential (depolarization): not affected
[15]
  IC50: 14.1 µM
[16]
  IC50: 3.5 µM
[17]; SI = IC50[MRC-5]/IC50[B16-F10]
  Selectivity index (SI): 16.5
[17]; SI = IC50[PBMC]/IC50[B16-F10]
  Selectivity index (SI): 22.3
[18]; SI = IC50[MRC-5]/IC50[MCF7]
  Selectivity index (SI): 4.1
[18]; SI = IC50[PBMC]/IC50[MCF7]
  Selectivity index (SI): 5.5
[19]
  IC50: 1.3 µM
[20]; SI = IC50[MRC-5]/IC50[HCT116]
  Selectivity index (SI): 14.1
[20]; SI = IC50[PBMC]/IC50[HCT116]
  Selectivity index (SI): 19
[21]; SI = IC50[MRC-5]/IC50[SCC-9]
  Selectivity index (SI): 0.5
[21]; SI = IC50[PBMC]/IC50[SCC-9]
  Selectivity index (SI): 0.6
[22]
  IC50: 127 µM
